Laboratory results taken from the supplement of paper PMC4604168 (melanoma cell lines).
The other results are listed elsewhere or left out. Many values rest on one well or one pass, so single values are uncertain.

Each compound was assayed on WM115 (assay: cell count relative to DMSO control; melanoma cells; higher = more viable cells). Conditions: library dose: low library concentration; 72 h; first compound 0.4 µM.
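Further: cell number obtained by counting DAPI-stained nuclei in high-throughput microscope images with image analysis software, screen run in 1,536-well plates.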

| SMILES | cell count [%] |
| --- | --- |
| Cn1sc(=O)n(Cc2ccccc2)c1=O + Cc1cc(N2CCOCC2)cc2[nH]c(-c3c(NC[C@@H](O)c4cccc(Cl)c4)cc[nH]c3=O)nc12 [BMS536924] (partner dose 0.2 µM) | 90.1 |
| CCCCCCCCCCCCCCCCCCOP(=O)([O-])OC1CC[N+](C)(C)CC1 [Perifosine] + C[C@@H]1CCN(C(=O)CC#N)C[C@@H]1N(C)c1ncnc2[nH]ccc12 [CP690550] (partner dose 1 µM) | 95.5 |
| CCCCCCCCCCCCCCCCCCOP(=O)([O-])OC1CC[N+](C)(C)CC1 [Perifosine] + OCCn1cc(-c2cnc3nnn(Cc4ccc5ncccc5c4)c3n2)cn1 [PF04217903] (partner dose 1 µM) | 86.1 |
| CCCCCCCCCCCCCCCCCCOP(=O)([O-])OC1CC[N+](C)(C)CC1 [Perifosine] + O=C(O)c1ccc2c(c1)nc(Nc1cccc(Cl)c1)c1ccncc12 [CX4945] (partner dose 0.4 µM) | 106 |
| Cn1sc(=O)n(Cc2ccccc2)c1=O + O=C(CCCCCCC(=O)Nc1ccccc1)NO [vorinostat] (partner dose 0.08 µM) | 109 |
| C[C@@H](N)c1ccc(C(=O)Nc2ccnc3[nH]ccc23)cc1 + CC(C)C[C@H](NC(=O)[C@H](Cc1ccccc1)NC(=O)c1cnccn1)B(O)O [Bortezomib] (partner dose 0.001 µM) | 115 |
| CCCCCCCCCCCCCCCCCCOP(=O)([O-])OC1CC[N+](C)(C)CC1 [Perifosine] + O=c1[nH]nc(Sc2ncc([N+](=O)[O-])s2)n1-c1ccc2c(c1)OCCO2 [BI78D3] (partner dose 0.2 µM) | 112 |
| C[C@@H](N)c1ccc(C(=O)Nc2ccnc3[nH]ccc23)cc1 + Cc1cc([N+](=O)[O-])ccc1NS(=O)(=O)c1cc(Cl)ccc1Cl [FH535] (partner dose 1 µM) | 93.5 |
| C[C@@H](N)c1ccc(C(=O)Nc2ccnc3[nH]ccc23)cc1 + c1cc(-c2cnn3cc(-c4ccc(OCCN5CCCCC5)cc4)cnc23)ccn1 [Dorsomorphin] (partner dose 0.4 µM) | 97.2 |
| CCCCCCCCCCCCCCCCCCOP(=O)([O-])OC1CC[N+](C)(C)CC1 [Perifosine] + O=C(/C=C/c1cccnc1)NCCCCC1CCN(C(=O)c2ccccc2)CC1 [FK866] (partner dose 0.01 µM) | 94.4 |
| Cn1sc(=O)n(Cc2ccccc2)c1=O + CN(NC(=O)CC(=O)NN(C)C(=S)c1ccccc1)C(=S)c1ccccc1 [STA4783] (partner dose 0.006 µM) | 83.8 |
| CCCCCCCCCCCCCCCCCCOP(=O)([O-])OC1CC[N+](C)(C)CC1 [Perifosine] + COc1cc2c(Oc3ccc4[nH]c(C)cc4c3F)ncnc2cc1OCCCN1CCCC1 [cediranib] (partner dose 0.4 µM) | 114 |
| C[C@@H](N)c1ccc(C(=O)Nc2ccnc3[nH]ccc23)cc1 + O=C(Nc1ccccc1)c1cc([N+](=O)[O-])ccc1Cl [GW9662] (partner dose 2 µM) | 103 |
| CCCCCCCCCCCCCCCCCCOP(=O)([O-])OC1CC[N+](C)(C)CC1 [Perifosine] + COc1ccc(Cl)c(Nc2nc3ccccc3nc2NS(=O)(=O)c2cccc(NC(=O)C(C)(C)N)c2)c1 [XL147] (partner dose 0.8 µM) | 104 |
| CCCCCCCCCCCCCCCCCCOP(=O)([O-])OC1CC[N+](C)(C)CC1 [Perifosine] + COC(=O)c1sccc1S(=O)(=O)Nc1ccc(Nc2ccccc2)cc1OC [GSK0660] (partner dose 1 µM) | 108 |
| Cn1sc(=O)n(Cc2ccccc2)c1=O + NC(=O)Nc1cc(-c2cccc(F)c2)sc1C(=O)N[C@H]1CCCNC1 [AZD7762] (partner dose 0.02 µM) | 90.5 |
| C[C@@H](N)c1ccc(C(=O)Nc2ccnc3[nH]ccc23)cc1 + CS(=O)(=O)CCNCc1ccc(-c2ccc3ncnc(Nc4ccc(OCc5cccc(F)c5)c(Cl)c4)c3c2)o1 [lapatinib] (partner dose 0.8 µM) | 111 |
| Cn1sc(=O)n(Cc2ccccc2)c1=O + C[C@]1(c2nc3c(C(N)=O)cccc3[nH]2)CCCN1 [Veliparib] (partner dose 1.4 µM) | 112 |
| C[C@@H](N)c1ccc(C(=O)Nc2ccnc3[nH]ccc23)cc1 + COc1ccc(Cl)c(Nc2nc3ccccc3nc2NS(=O)(=O)c2cccc(NC(=O)C(C)(C)N)c2)c1 [XL147] (partner dose 0.8 µM) | 105 |
